Self-cleavage data for 167 variants are collected here from the RNAGym collection of RNA variant scans (doi:10.7554/elife.90254).

B1: LINE1-mini (parent)
chain: GGCAGAGCUCAACACAGCGUGGCAAAGUGGCUGUGGCUAGACUGCC

The source gives no read counts; variants with many changes may rest on few reads.

Variants of B1 are the subject of this series. The series can be described thus: self-cleavage, relative activity (ratio to wild type); higher = more cleavage; in vitro, sequencing; the parent is a self-cleaving ribozyme.
Turning to C13A G21U C37A U38G, the self-cleavage amounted to 0.01. Next, C3U A11C A12C A16G G33A G44U: 0.01; A4G G7C A16C G35A: 0.3; G22U G36U G44A: 0.28.

As to C10U C13A G21U G30U U38C C46A, the self-cleavage came out at 0.03.

Consider G1A G36U C37A, for which the self-cleavage amounted to 0.1. For the variant A4C A6G A25U C46G, the self-cleavage was 0.63. For A6U A14U G22U A25U G35A the value was 0.1; for G7U U20A G29U A41U U43A, 0.02.

Take A4C U28A G44A: the self-cleavage came out at 0.16. Next, U9C G40U A41C: 0.01.

On to A6U C13A C15U G17A G27C, for which the self-cleavage was 0.06. Consider A4C C18G G35U A41C, for which the self-cleavage turned out to be 0.02. Next, G2C A4C U9G C13A G19C: 0.22.

In the case of G2U C10U G17C G35C G44A, the self-cleavage amounted to 0.01. Turning to G2A A16C G33C, the self-cleavage was determined as 0.04. Next, A25C C31U U32A C37U: 0.12; G1U G2A A11C G19C C31A G33C: 0.01; G19C A24U A41G: 0.06. As to G5U A14G G33U, the self-cleavage was found to be 0.06. Next, G17C A39U G44C: 0.04; G2A A14G G17A A25C A26G C31G C42U G44C: 0.05; A4C A14U U20G G22A: 0.46. Consider U20C G29U G35U, for which the self-cleavage was found to be 0.06. Next, G7A C18A G22C U32A U38A: 0.02. Next, C23U G30U G36U C46A: 0.03. For A24U A25U U28A C37U C45A the value was 0.01; for U9G C13U G29C G40U, 0.03. For A6C C8A U9G A11U C31G C42U, the self-cleavage is 0. On to G1A G2C G21U U32G, for which the self-cleavage is 0.05. Turning to C3A G5U C10G G33C C37U, the self-cleavage came out at 0.03. As for A4C C10U A12C, the self-cleavage turned out to be 0.02. Next, C10A C31A C37G A41U: 0; G19A G21C U34G: 0.13; A14U U20G A24U: 0.09. Next, C10A A24U A26U: 0.05. Next, G2A C10A G30C C42G: 0.02; G21C G22U A25C G27U: 0.95; G7C C13U A16C U20G G27A U28A: 0.02.

Consider C13G U20G G30U, for which the self-cleavage is 0.02. On to C3A G21A A24U U28G C45U, for which the self-cleavage amounted to 0.11.

Take G5U G17C A24U: the self-cleavage was determined as 0.05.

As for G1A U38A C42U, the self-cleavage worked out at 0.1. As to A11C A12U C18A A39G C42A, the self-cleavage worked out at 0.

On to G2C A26G C31G, for which the self-cleavage was 0.07. For A14G A24G G30A A39C the value was 0.02; for G2C G5A G30U, 0. For A14U U28A G35U U38C G44U C46U the value was 0.01. For G19U C31A G40A the value was 0.01; for G1A A4G A16U G21C, 0.22; for A6U A25G G30U G35U C37G, 0.07. With C15U G21C G35U A41C, the self-cleavage was determined as 0.01. For C13A A25C G27C G35U the value was 0.03. Regarding C18U G35U C45A, the self-cleavage came out at 0.04. Next, G1U U20A C23U: 0.3; U9C G33U U43A: 0.05; A12C U20A A25C G29U: 0.02.

Turning to C8A G21U U28A, the self-cleavage worked out at 0.08.

As for C15U C42G C45G, the self-cleavage amounted to 0.02.

C10A A11C C13G G35U: the self-cleavage amounted to 0.01. For C10G G19U U20C the value was 0.02; for G5C C13A U38C, 0.02.

Take U28G C31U C37A C45G C46A: the self-cleavage was 0.07. A4U C8G A16C: the self-cleavage worked out at 0.03. Next, A25G G27A G33U: 0.04; A24U U32A G33C A39U: 0.02; A26G U38C C46U: 0.21. Take U20A A25U G29U G44C C46G: the self-cleavage is 0.07. For G1U U9C G29C G40A the value was 0.01; for G2A A12G C15A C46A, 0.16; for C3A C8G A12G A14G, 0.04. Next, A4C G7C G22A C37U: 0.12. Next, C8G G17U C18U G35A C42A: 0.07; A12G C15U G29C: 0.04. Take U20G G21U C31A U34G: the self-cleavage amounted to 0.

As for G1A G17A G40U, the self-cleavage is 0.14. Regarding A12C U20G C31U, the self-cleavage came out at 0.01.

Consider G7U C13G G17C U20A C45U, for which the self-cleavage is 0.04.

On to C10A U32C U38A U43A, for which the self-cleavage was found to be 0.02.

As to G1U C15A G36U G44C, the self-cleavage turned out to be 0.02. For C15A G33A G40U the value was 0.04. Next, C10G C15U C18U: 0.11. As to G29U U32G C45A, the self-cleavage amounted to 0.04. For C3G C8U C23U A26U A39G the value was 0.02; for A25C G27C G33U, 0.03. For A11G U20C C23A U34A the value was 0.02; for A6C C10A A16C G33C, 0.03.

As to G2U U9G G22C C45A, the self-cleavage came to 0.03. Next, G1U A4G A12U C15A C37A C42G: 0.03; G1C G2U C10U U32G G35U: 0.02; A4G C10A C45A: 0.03. For C3G A4G A14C A25C G29A C31G A41G the value was 0; for C15A G19C A26U U28G G36A C37U, 0.03; for G5A A14C G36A A41G C42U, 0.1. Next, G5U U20G G21U G33C C37G: 0.08; C15A G17U A24C G30C U32G G36C: 0.02; C3A C18U A25C C45A: 0.13. For the variant U9A C10G G40C, the self-cleavage came out at 0.01. With U20G G40A G44U, the self-cleavage came out at 0.04.

With C18A A24U A26U U28G G33U, the self-cleavage turned out to be 0.01. On to G1C G27U G33A G35A G40A C45A, for which the self-cleavage was determined as 0.02. Next, A6U G17C U32A G33C: 0.01; A16G A24G U34C: 0.01. For G5A G7C A12G C13G C18A G22U the value was 0.09.

C31G G33U G35A G40C G44U C45A: the self-cleavage was 0.01. As for A24C G29U U43C, the self-cleavage was determined as 0.06.

For the variant C15A U43G G44A, the self-cleavage came out at 0.15. Next, G21U G40A C42U: 0.17; C3U G17A C18A U20A G30U C46A: 0.02. For C10U U20G G33A the value was 0.05; for C23G G27U A39U, 0.16. For C8G A14G C18A G44U the value was 0.01; for A11U U32A C37G C45U, 0; for C13U U32A C45A, 0.02. For A12U G22A U32C, the self-cleavage was 0.07. As for G19U G30A A39G C42G, the self-cleavage is 0.05. Next, A4C C23G A26G U43A C46A: 0.18; U20G C23U A41C: 0.07. For C8U C15G U28G G35C the value was 0.08; for C8A A14C C18U G30A, 0.12. As to G2U A4C C10U A14C U38A C42A, the self-cleavage was determined as 0.02. Next, G5A A24C G30C U34G A39U: 0. With G5C C15U U20C G33U, the self-cleavage turned out to be 0.06.

With C8U C13A C18G, the self-cleavage stood at 0.06.

For the variant C3A C8U G17A C18A G33C U34A, the self-cleavage was 0.1. Next, C3A U32A U38C: 0.05. For A4G U20A G35C the value was 0.05; for G5A C10U A12C G17C G19C U20G, 0.01. For C3U C18A G36A A39G the value was 0.1. Consider G19C C31A G44A, for which the self-cleavage stood at 0.09. Next, A12U C31G G33A U34G C45U: 0.01; C3A C8U G19A: 0.12. Next, A11U G17C G35A U38A: 0.03; G1U G2C C3G C13U: 0.28; U9G A11U U20C G22U A39U: 0. Next, C3U G33A A39C: 0.08.

Take G5C C10G C23U: the self-cleavage came out at 0.02. For C18G A25C C31U G36C the value was 0.05; for A12G U38A G44C, 0. For G7U A12G G19A A26G C37A the value was 0.01; for C18A G27A U28A, 0.21. For G19U C31G U34C C46A the value was 0.02; for G1A C10U A25C G27A, 0.34; for A11C G21A C45U, 0.05.

Turning to G1U A24G A26G G33A, the self-cleavage was 0.01. Next, A11U A16U A25C G29U G40U: 0.01. For G7A A25U U34C the value was 0.02. For G2C A6G A16C G27A U43G C46A, the self-cleavage was determined as 0.01. Next, G5A G7C G19C A39U: 0.04; C8G U20C A26U C37U: 0.05; G5A C13A G21A: 0.03. Turning to G7C A11C C18A G29U G35C, the self-cleavage came out at 0.04. In the case of G21A G33C G36C, the self-cleavage came to 0.06. Next, C3G G7A C23U: 0.06; A12U G30C G36A C37A: 0.02. Next, A26C U32C G40A: 0.08; G2U A16U G17C: 0.02; G1A G2U A14C: 0.04. For the variant G5C C13U C23U U28C G30A, the self-cleavage worked out at 0.06. On to C3G G22A C23A G30A G40A, for which the self-cleavage worked out at 0.09. Next, G2U C3A G17U G35A C45G: 0.05. Next, G1C A25U G29A: 0.06; C13A G21U G44C: 0.03; A6U U9G U20A G30C C42U: 0.03. Turning to G17A G29A C45G, the self-cleavage came to 0.09.

For C10U C15G C46A, the self-cleavage is 0.02. Next, A4U G21A G22C A25U A41U: 0.05.
